Data published in paper PMC4336329 (PLoS ONE, 2015).
Out of some 310,000 compounds screened, about 14,000 (4.5%) showed an effect of 50% or more. The effect is printed as a negative number. The list shows a part of the results.

Target: human ether-à-go-go-related gene (hERG) potassium channel (human, UniProt Q12809)
Assay: primary screen, population patch clamp on CHO cells stably expressing hERG
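Further: peak tail current of the secondary pulse compared with the same well before compound.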

Chain of human ether-à-go-go-related gene (hERG) potassium channel (Q12809 whole entry, looked up): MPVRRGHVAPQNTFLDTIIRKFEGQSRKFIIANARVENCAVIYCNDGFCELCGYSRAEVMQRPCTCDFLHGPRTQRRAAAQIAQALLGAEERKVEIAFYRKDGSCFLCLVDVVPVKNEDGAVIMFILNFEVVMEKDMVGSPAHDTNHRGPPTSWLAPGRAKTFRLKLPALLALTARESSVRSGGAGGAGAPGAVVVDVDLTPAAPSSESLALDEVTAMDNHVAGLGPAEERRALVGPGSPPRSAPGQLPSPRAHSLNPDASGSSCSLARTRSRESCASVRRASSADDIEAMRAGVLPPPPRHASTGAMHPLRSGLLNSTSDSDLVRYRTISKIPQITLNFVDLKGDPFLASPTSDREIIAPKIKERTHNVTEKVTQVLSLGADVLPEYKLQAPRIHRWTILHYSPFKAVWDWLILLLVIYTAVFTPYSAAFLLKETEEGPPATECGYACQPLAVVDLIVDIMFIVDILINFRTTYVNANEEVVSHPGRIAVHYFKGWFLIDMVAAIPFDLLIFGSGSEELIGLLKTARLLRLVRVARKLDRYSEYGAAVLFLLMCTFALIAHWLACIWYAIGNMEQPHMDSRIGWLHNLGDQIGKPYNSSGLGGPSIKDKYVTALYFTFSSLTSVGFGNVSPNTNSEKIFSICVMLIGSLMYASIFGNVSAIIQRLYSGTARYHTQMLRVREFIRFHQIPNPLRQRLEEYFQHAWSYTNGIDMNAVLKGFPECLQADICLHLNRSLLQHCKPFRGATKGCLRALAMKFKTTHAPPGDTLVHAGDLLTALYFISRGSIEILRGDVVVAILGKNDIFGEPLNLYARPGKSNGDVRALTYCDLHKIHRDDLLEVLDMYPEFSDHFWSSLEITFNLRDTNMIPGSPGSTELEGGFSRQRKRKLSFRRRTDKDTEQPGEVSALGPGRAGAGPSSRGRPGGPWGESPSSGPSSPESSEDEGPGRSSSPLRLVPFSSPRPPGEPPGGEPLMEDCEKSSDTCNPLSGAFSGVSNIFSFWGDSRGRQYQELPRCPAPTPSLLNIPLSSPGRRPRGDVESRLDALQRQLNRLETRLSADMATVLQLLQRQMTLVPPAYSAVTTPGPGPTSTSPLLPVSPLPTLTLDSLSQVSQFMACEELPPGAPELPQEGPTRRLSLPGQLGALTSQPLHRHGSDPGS

SMILES	hERG current change (%, negative = inhibition) at 10uM [%]
COc1ccc(-n2nc([N+](=O)[O-])c(=NCCc3ccc(C)cc3)n2O)cc1	-3.72
COc1ccc(C(=O)OCc2c(-c3cccc(OC)c3)ncc3ccccc23)cc1	12.8
N#C/C(=C\c1ccc(N2CCOCC2)c([N+](=O)[O-])c1)c1nc2ccccc2[nH]1	-59.6
Cc1nonc1CC(=O)N1CCCC(C(=O)c2cccc(C(F)(F)F)c2)C1 (centres unmarked)	-56.2
S=C(Nc1cc(Cl)cc(Cl)c1)N1CCCC1	3.02
CCCCCCOc1ccc(CN2CCN(CC)CC2)cc1	-41.1
Nc1nnc(CC(=O)N/N=C/c2cc([N+](=O)[O-])cc(Br)c2O)s1	11.7
O=C(CN(C(=O)c1ccccc1Cl)N1C(=O)C2C3C=CC(C3)C2C1=O)c1cccs1 (centres unmarked)	7.25
CC(OC(=O)c1ccc(Cl)nc1)C(=O)NC(C)(C)C (centres unmarked)	17.6
COc1cc(SC#N)ccc1N=Cc1c(C)[nH]n(-c2ccc(C)c(C)c2)c1=O	-2.66
O=C(O)C1C2CCC(O2)C1C(=O)NCc1ccccc1Br (centres unmarked)	13.8
CCOc1ccccc1N1C(=O)CC(Sc2nccc(C)n2)C1=O (centres unmarked)	22
COc1ccc(C2Nc3ccccc3C(=O)N2Cc2ccco2)cc1COc1ccc(NC(C)=O)cc1 (centres unmarked)	-24.9
c1ccc(OCc2nn3c(Cn4nnc5ccccc54)nnc3s2)cc1	-30.7
CCOC(=O)N1CCC(Nc2ncnc3c2cnn3-c2ccccc2)CC1	-12.1
Cc1cc(C(F)(F)F)n(-c2nc(C(=O)Nc3cccnc3)cs2)n1	-20
Cc1ccc(N=Cc2cc(Br)cc(Cl)c2O)cc1	23.3
Cc1ccc(NCc2nc(SCC(=O)Nc3ccccc3)n[nH]2)cc1	19.5
O=C(/C=C/c1ccc(F)cc1)NC(Cc1c[nH]c2ccccc12)C(=O)O (centres unmarked)	-1.47

SMILES	hERG current change (%, negative = inhibition) at 10uM [%]
O=c1c2ccccc2sn1-c1cc(S(=O)(=O)N2CCOCC2)ccc1N1CCCC1	0.515
COc1ccccc1CNC(=O)CCc1nc2ccccc2c(=O)[nH]1	-1.26
CSc1ccc(/C=N/NC(=O)COc2ccc(Br)cc2Cl)cc1	9.71
CCOC(=O)CSc1nc(-c2ccc3c(c2)OCO3)ccc1C#N	7.3
Cn1cc(C(=O)c2ccc(Cl)cc2)cc1-c1nc2ccccc2n1C	-47.9
COc1ccccc1CNC(=O)c1cn(C)c2ccc(S(=O)(=O)N3CCCCC3)cc2c1=O	29.6
CN(C)S(=O)(=O)c1ccc(C(=O)NCc2nnc(SCC(=O)N3CCCCCC3)o2)cc1	21.4
CCOC(=O)C1=C(c2ccc(OC)cc2)C(=O)c2ccccc2C1=O	15.7
CC1CC2(CCCC2)N(C(=O)N(C)C)c2ccc(F)cc21 (centres unmarked)	7.09
O=Cc1ccccc1OCCN1CCCC1=O	17.2
CSc1ccc(S(=O)(=O)N2CCC(C(=O)NCc3ccccn3)CC2)cc1	-7.66
O=C(c1cc(S(=O)(=O)N2CCCCC2)c(Cl)cc1N1CCOCC1)N1CCOCC1	-5.57
COc1ccccc1/C=C/C=N/n1c(-c2ccccc2)n[nH]c1=S	-18.9
CCOC(=O)c1c(C=O)c2ccccc2n1CC	17.1
Cc1ccc(C(=O)N(C)c2ccc(OCC(=O)N3c4ccc(C)cc4C4CN(C)CCC43)cc2)cc1.Cl (centres unmarked)	-25.5
COc1ccc2cc(C(=O)NCc3ccccc3)c(=O)oc2c1	17.8
COC(=O)c1ccc(OC)c(-c2c(OC)cc(OC)cc2OC)c1	-1.49
CC1(C)C2CCC1(CS(=O)(=O)N1CCC(C(=O)O)CC1)C(=O)C2 (centres unmarked)	2.6
O=C(CN1CCN(S(=O)(=O)N2CCCCC2)CC1)Nc1ccc(Br)cc1	-78.2

SMILES	hERG current change (%, negative = inhibition) at 10uM [%]
CCOC(=O)/C=C1\SCC(=O)N1CC(=O)NCc1ccc(OC)c(OC)c1	-3.73
Cc1ccc(C)c(NC(=O)CN(C)C(=O)CCN2C(=O)c3ccccc3C2=O)c1	0.75
Cc1ccc(C)c(N2N=C(C(=O)O)CCC2=O)c1	5.29
CCc1cc2c(N3CCCCC3)ncnc2s1.Cl	-7.21
COCCNC(=O)COc1ncnc2ccc(Br)cc12	-1.11
CCN1C(=O)N[C@H](c2ccc(Br)cc2)C(C(=O)OC)=C1C	2.79
O=C(NNC(=O)C12CC3CC(CC(O)(C3)C1)C2)c1csc(N2CCOCC2)n1	21.9
O=C(c1ccc2ccccc2c1)C1CCCN(C(=O)CCn2cnnn2)C1 (centres unmarked)	-15.5
COc1ccc(OCC2CCCN(Cc3nc(CC4CC4)no3)C2)cc1 (centres unmarked)	-46.3
Cc1c(C(=O)N2CCC(Cc3ccccc3)CC2)cccc1[N+](=O)[O-]	-34.3
CCOC(=O)c1ccc(N=c2sc(C(=O)OC)cc(=O)n2Cc2ccc3c(c2)OCO3)cc1	8.99
CC1CCN(c2oc(-c3ccccc3F)nc2C#N)CC1	-10.7
C=CCn1c(CCNC(=O)c2cccs2)nnc1SCC(=O)Nc1cccc(F)c1	-34.6
Cc1ccc(NS(=O)(=O)c2c(C)nc3sccn3c2=O)cc1	-6.98
O=C(N/N=C/c1ccc(Cl)c([N+](=O)[O-])c1)c1cc(-c2ccc3c4c(cccc24)CC3)n[nH]1	8.06
O=C(O)C1CCCCC1C(=O)NCCc1c[nH]c2ccccc12 (centres unmarked)	8.71
COC(=O)c1ccc(N2CCOCC2)c(NC(=O)c2ccc3c(c2)OCCO3)c1	9.21
C=CCn1nnc2sc3c(c2c1=O)CCC(C)C3 (centres unmarked)	7.5
